The target of the assay is full-length yeast Hsp90 (Hsp82) (yeast, UniProt P02829 1-709). Description: AUC.

B1: Tau isoform D (C264S) (natural protein)
chain: not shown
modifications: IPSL (3-(2-iodoacetamido)-PROXYL) spin label on C233 (PRE experiments)
For the molecule B1, the binding result is “binds”.

The record behind these values is publication PMC8682993 (Science Advances, 2021).
